From patent US20250326840A1

B1: Q-1801 (bispecific antibody, human IgG1, kappa, L234A L235A)
heavy: QVQLVQSGAEVKKPGASVKVSCKASGYTFTNYWINWVRQAPGQGLEWIAMIDPSDSETHYNQIFKDRATLTTDTSTSTAYMELRSLRSDDTAVYYCAMDYGSLYAMDYWGRGTLVTVSSASTKGPSVFPLAPSSKSTSGGTAALGCLVKDYFPEPVTVSWNSGALTSGVHTFPAVLQSSGLYSLSSVVTVPSSSLGTQTYICNVNHKPSNTKVDKKV[no letters for human IgG1 Fc with L234A L235A K338A (EU numbers)]GGGGSGGGGSGGGGSGGGGSEVQLLESGGGLVQPGGSLRLSCAASGFTLDDYAIGWFRQAPGKGREGVSCISKSGETTFFVESVKDRFTISRDNSKNTLYLQMNSLRAEDTAVYYCATGSWCTVGSMSRQFYRQFFHSWGQGTLVTVSS
light: DIVLTQSPDSLAVSLGERATINCRASQSVRSSGYNWIFWYQQKPGQPPKLLIYLASNRDSGVPDRFSGSGSGTDFTLTISSLQAEDVAVYYCQHSRELPTFGQGTKLEIKRTVAAPSVFIFPPSDEQLKSGTASVVCLLNNFYPREAKVQWKVDNALQSGNSQESVTEQDSKDSTYSLSSTLTLSKADYEKHKVYACEVTHQGLSSPVTKSFNRGEC
B2: QP32700279 (antibody, human IgG1, kappa, L234A L235A)
heavy: QVQLVQSGAEVKKPGASVKVSCKASGYTFTNYWINWVRQAPGQGLEWIAMIDPSDSETHYNQIFKDRATLTTDTSTSTAYMELRSLRSDDTAVYYCAMDYGSLYAMDYWGRGTLVTVSSASTKGPSVFPLAPSSKSTSGGTAALGCLVKDYFPEPVTVSWNSGALTSGVHTFPAVLQSSGLYSLSSVVTVPSSSLGTQTYICNVNHKPSNTKVDKKV[no letters for human IgG1 Fc with L234A L235A K338A (EU numbers)]
light: B1 light
B3: QP026249 (KWAR23 analog) (antibody, human IgG4 S228P, kappa)
heavy: EVQLQQSGAELVKPGASVKLSCTASGFNIKDYYIHWVQQRTEQGLEWIGRIDPEDGETKYAPKFQDKATITADTSSNTAYLHLSSLTSEDTAVYYCARWGAYWGQGTLVTVSSASTKGPSVFPLAPCSRSTSESTAALGCLVKDYFPEPVTVSWNSGALTSGVHTFPAVLQSSGLYSLSSVVTVPSSSLGTKTYTCNVDHKPSNTKVDKRV[no letters for human IgG4 Fc with S228P (EU numbers)]
light: QIVLTQSPAIMSASPGEKVTLTCSASSSVSSSYLYWYQQKPGSSPKLWIYSTSNLASGVPARFSGSGSGTSYSLTISSMEAEDAASYFCHQWSSYPRTFGAGTKLELKRTVAAPSVFIFPPSDEQLKSGTASVVCLLNNFYPREAKVQWKVDNALQSGNSQESVTEQDSKDSTYSLSSTLTLSKADYEKHKVYACEVTHQGLSSPVTKSFNRGEC
B4: QP37503751 (1H9 analog) (antibody, human IgG1, kappa)
heavy: QVQLVQSGAEVKKPGASVKVSCKASGYTFTSYWITWVKQAPGQGLEWIGDIYPGSGSTNHIEKFKSKATLTVDTSISTAYMELSRLRSDDTAVYYCATGYGSSYGYFDYWGQGTLVTVSS[no letters for human IgG1 constant region with changes]
light: DIQMTQSPSSLSASVGDRVTITCRASENIYSYLAWYQQKPGKAPKLLIYTAKTLAEGVPSRFSGSGSGTDFTLTISSLQPEDFATYYCQHQYGPPFTFGQGTKLEIKRTVAAPSVFIFPPSDEQLKSGTASVVCLLNNFYPREAKVQWKVDNALQSGNSQESVTEQDSKDSTYSLSSTLTLSKADYEKHKVYACEVTHQGLSSPVTKSFNRGEC

Biological target: SIRPα on human monocyte-derived macrophages (human), P78324
Assay: cell-based or functional assay

Row | Binder | EC50 of Rituxan-dependent ADCP in combination, donor P121031405C [µg/mL] | maximum phagocytic percentage, Rituxan-dependent ADCP of Raji cells, donor P121031405C [%]
1 | B1 | 0.0119 | 32.4
2 | B2 | 0.013 | 32.1
3 | B3 | 0.0176 | 30.1
4 | B4 | 0.0149 | 28.1
